Test results as given in article PMC3792642 (Acta Crystallographica Section D: Biological Crystallography, 2013).
Peptide text beside a SMILES is read from it.

Biological target: MtbDsbA (Rv2969c) (Mycobacterium tuberculosis, UniProt O33272)
Experiment: ITC of VKOR-derived peptides binding to MtbDsbA
Parameters: species or system Mycobacterium tuberculosis H37Rv
Conditions: 298 K; for ΔH (enthalpy change) / N (apparent stoichiometry): 2-4 mM peptide into 100 µM MtbDsbA, 25 mM HEPES pH 7.4, 100 mM NaCl; for ΔH (enthalpy change): mean and SD of curve fits from two ITC runs; for N (apparent stoichiometry): two ITC runs; for −TΔS (temperature x entropy change): calculated from the free energy equation (ΔH − TΔS = −RTlnK d,app)

Row | SMILES | ΔH (enthalpy change) [kcal/mol] | N (apparent stoichiometry) | −TΔS (temperature x entropy change) [kcal/mol]
1 | CC[C@H](C)[C@H](NC(=O)[C@@H]1CCCN1C(C)=O)C(=O)N[C@@H](Cc1ccc(O)cc1)C(=O)N[C@H](C(=O)N1CCC[C@H]1C(=O)N[C@@H](CO)C(=O)N[C@@H](CS)C(=O)N[C@@H](CC(N)=O)C(=O)N[C@H](C(=O)N[C@@H](CC(N)=O)C(=O)N1CCC[C@H]1C(N)=O)C(C)C)C(C)C [PIYVPSCNVNP] (Ac-PIYVPSCNVNP-NH2) | -10.9 ± 0.0 | 1.0 | 3.5
2 | CC(=O)N[C@H](C(=O)N1CCC[C@H]1C(=O)N[C@@H](CO)C(=O)N[C@@H](CS)C(=O)N[C@@H](CC(N)=O)C(=O)N[C@H](C(=O)N[C@@H](CC(N)=O)C(=O)N1CCC[C@H]1C(N)=O)C(C)C)C(C)C [VPSCNVNP] (Ac-VPSCNVNP-NH2) | -7.1 ± 4.0 | 1.0 | –
3 | CC(=O)N[C@H](C(=O)N1CCC[C@H]1C(=O)N[C@@H](CO)C(=O)N[C@@H](CS)C(=O)N[C@@H](CC(N)=O)C(=O)N[C@H](C(N)=O)C(C)C)C(C)C [VPSCNV] (Ac-VPSCNV-NH2) | -6.8 ± 0.2 | 1.0 | -0.1
4 | CC(=O)N[C@@H](Cc1ccc(O)cc1)C(=O)N[C@H](C(=O)N1CCC[C@H]1C(=O)N[C@@H](CO)C(=O)N[C@@H](CS)C(=O)N[C@@H](CC(N)=O)C(=O)N[C@H](C(N)=O)C(C)C)C(C)C [YVPSCNV] (Ac-YVPSCNV-NH2) | -7.0 ± 0.4 | 1.1 | -0.5
